Data taken from ChEMBL document CHEMBL1961873, “Compounds: GSK PKIS; Assays: Nanosyn kinase panel” (2012).
For some assays here: The strong results were mostly taken out for another list; the other results follow. The list shows a part of the results, in another mix than the full data.

Columns and labels:
[1] = target: Mitogen-activated protein kinase 3 (Homo sapiens) (UniProt P27361); conditions: at 1 µM;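 also: values are mean percent inhibition of MAPK3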
[2] = target: SRSF protein kinase 3 (Homo sapiens) (UniProt Q9UPE1); conditions: at 0.1 µM
Chain of UniProt Q9UPE1 (Q9UPE1 whole entry): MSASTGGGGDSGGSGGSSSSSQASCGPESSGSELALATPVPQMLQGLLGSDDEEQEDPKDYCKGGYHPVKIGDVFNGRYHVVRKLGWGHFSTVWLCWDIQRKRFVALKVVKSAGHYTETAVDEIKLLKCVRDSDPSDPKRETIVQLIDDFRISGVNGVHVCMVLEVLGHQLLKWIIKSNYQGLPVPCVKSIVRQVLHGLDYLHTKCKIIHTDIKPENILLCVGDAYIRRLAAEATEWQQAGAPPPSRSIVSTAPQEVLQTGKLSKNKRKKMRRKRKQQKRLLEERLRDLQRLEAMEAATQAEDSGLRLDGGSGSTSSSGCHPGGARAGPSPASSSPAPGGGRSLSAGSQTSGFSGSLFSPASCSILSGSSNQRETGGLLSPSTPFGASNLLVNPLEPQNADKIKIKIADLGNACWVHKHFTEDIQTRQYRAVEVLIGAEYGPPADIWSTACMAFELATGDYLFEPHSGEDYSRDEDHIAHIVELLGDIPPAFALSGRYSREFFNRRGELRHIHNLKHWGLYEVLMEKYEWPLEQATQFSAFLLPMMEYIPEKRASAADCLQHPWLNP

[3] = target: SRSF protein kinase 3 (Homo sapiens) (UniProt Q9UPE1); conditions: at 1 µM
[4] = target: Mitogen-activated protein kinase 11 (Homo sapiens) (UniProt Q15759); conditions: at 0.1 µM
Chain of UniProt Q15759 (Q15759 whole entry): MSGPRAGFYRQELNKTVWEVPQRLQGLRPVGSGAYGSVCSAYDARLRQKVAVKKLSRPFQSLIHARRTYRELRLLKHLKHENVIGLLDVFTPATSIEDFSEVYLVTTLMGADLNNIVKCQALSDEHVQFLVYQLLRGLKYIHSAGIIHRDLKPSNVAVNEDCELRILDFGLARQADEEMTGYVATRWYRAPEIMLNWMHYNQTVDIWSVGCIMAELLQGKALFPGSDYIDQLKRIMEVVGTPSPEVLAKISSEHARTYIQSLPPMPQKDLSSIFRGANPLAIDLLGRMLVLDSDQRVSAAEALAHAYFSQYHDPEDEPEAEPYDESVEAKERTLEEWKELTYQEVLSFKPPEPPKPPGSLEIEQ

[5] = target: Mitogen-activated protein kinase 11 (Homo sapiens) (UniProt Q15759); conditions: at 1 µM
[6] = target: T1, Mitogen-activated protein kinase 13 (Homo sapiens) (UniProt O15264); conditions: at 0.1 µM
T1 sequence (whole entry): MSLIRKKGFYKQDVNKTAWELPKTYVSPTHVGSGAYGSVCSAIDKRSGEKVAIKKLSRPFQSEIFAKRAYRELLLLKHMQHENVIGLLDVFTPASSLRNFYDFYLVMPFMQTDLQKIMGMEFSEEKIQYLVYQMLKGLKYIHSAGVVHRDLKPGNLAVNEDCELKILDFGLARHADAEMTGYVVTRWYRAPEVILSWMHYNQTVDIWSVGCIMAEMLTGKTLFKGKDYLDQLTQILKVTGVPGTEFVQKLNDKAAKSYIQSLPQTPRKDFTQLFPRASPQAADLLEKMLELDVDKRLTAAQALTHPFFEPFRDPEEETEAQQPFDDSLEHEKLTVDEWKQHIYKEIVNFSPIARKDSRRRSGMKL

[7] = target: T1, Mitogen-activated protein kinase 13 (Homo sapiens); conditions: at 1 µM
[8] = target: T2, Mitogen-activated protein kinase 12 (Homo sapiens) (UniProt P53778); conditions: at 0.1 µM
T2 sequence (whole entry): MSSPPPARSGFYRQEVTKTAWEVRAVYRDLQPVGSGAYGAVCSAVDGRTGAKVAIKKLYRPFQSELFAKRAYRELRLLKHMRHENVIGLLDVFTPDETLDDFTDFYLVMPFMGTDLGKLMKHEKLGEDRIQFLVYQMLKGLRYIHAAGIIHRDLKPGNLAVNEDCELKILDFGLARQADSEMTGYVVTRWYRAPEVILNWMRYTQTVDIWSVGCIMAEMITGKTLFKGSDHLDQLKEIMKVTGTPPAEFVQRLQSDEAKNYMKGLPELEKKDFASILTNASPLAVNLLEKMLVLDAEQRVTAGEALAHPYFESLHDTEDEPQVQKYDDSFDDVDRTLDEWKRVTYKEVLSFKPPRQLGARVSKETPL

[9] = target: T2, Mitogen-activated protein kinase 12 (Homo sapiens); conditions: at 1 µM
[10] = target: SRSF protein kinase 1 (Homo sapiens) (UniProt Q96SB4); conditions: at 0.1 µM
Chain of UniProt Q96SB4 (Q96SB4 whole entry, canonical isoform): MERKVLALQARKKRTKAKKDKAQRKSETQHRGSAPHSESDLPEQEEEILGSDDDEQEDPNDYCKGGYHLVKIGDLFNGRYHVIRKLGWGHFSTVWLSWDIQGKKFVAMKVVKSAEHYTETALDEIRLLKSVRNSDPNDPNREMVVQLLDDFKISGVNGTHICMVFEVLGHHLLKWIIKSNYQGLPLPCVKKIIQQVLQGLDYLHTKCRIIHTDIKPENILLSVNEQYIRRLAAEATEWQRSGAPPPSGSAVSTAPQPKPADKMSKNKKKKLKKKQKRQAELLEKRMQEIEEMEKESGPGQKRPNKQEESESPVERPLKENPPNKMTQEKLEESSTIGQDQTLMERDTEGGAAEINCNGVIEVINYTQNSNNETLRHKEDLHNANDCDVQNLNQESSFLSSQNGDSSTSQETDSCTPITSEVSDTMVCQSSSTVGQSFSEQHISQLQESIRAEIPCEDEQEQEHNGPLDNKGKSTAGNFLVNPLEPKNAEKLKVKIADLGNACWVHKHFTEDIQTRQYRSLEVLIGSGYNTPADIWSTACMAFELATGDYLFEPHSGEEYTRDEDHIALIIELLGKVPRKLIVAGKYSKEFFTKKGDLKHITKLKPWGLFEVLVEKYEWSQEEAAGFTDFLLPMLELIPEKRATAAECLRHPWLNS

[11] = target: SRSF protein kinase 1 (Homo sapiens) (UniProt Q96SB4); conditions: at 1 µM
[12] = target: Phosphatidylinositol 4,5-bisphosphate 3-kinase catalytic subunit alpha isoform (Homo sapiens) (UniProt P42336); conditions: at 0.1 µM
Chain of UniProt P42336 (P42336 whole entry, canonical isoform): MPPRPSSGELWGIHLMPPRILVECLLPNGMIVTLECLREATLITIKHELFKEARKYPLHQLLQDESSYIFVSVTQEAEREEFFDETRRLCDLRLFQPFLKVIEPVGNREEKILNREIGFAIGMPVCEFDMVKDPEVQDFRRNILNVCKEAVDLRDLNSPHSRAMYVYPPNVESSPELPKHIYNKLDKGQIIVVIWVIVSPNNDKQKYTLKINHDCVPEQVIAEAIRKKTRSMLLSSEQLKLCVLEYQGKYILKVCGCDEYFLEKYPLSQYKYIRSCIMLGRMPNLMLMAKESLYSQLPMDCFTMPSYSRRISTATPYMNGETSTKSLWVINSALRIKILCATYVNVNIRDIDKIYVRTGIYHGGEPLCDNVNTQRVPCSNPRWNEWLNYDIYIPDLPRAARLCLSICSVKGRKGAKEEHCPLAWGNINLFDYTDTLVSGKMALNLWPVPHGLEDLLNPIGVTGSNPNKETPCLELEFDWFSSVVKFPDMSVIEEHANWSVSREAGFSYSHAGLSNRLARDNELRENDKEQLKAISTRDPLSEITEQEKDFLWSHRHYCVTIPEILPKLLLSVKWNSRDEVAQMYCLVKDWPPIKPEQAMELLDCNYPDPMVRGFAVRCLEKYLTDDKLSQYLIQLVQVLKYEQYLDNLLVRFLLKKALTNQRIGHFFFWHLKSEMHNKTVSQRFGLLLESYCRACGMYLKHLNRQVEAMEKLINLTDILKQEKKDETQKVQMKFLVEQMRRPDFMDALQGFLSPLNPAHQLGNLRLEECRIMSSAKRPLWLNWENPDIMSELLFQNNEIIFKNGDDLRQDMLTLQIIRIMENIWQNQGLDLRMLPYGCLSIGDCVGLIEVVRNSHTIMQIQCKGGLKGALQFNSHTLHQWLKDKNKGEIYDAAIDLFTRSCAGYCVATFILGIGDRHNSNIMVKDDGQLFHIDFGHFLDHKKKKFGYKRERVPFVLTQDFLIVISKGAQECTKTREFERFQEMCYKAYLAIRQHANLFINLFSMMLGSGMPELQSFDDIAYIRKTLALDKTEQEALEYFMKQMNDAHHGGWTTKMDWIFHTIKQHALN

[13] = target: Phosphatidylinositol 4,5-bisphosphate 3-kinase catalytic subunit alpha isoform (Homo sapiens) (UniProt P42336); conditions: at 1 µM
[14] = target: T3, Phosphatidylinositol 4,5-bisphosphate 3-kinase catalytic subunit delta isoform (Homo sapiens) (UniProt O00329); conditions: at 0.1 µM
T3 sequence (whole entry): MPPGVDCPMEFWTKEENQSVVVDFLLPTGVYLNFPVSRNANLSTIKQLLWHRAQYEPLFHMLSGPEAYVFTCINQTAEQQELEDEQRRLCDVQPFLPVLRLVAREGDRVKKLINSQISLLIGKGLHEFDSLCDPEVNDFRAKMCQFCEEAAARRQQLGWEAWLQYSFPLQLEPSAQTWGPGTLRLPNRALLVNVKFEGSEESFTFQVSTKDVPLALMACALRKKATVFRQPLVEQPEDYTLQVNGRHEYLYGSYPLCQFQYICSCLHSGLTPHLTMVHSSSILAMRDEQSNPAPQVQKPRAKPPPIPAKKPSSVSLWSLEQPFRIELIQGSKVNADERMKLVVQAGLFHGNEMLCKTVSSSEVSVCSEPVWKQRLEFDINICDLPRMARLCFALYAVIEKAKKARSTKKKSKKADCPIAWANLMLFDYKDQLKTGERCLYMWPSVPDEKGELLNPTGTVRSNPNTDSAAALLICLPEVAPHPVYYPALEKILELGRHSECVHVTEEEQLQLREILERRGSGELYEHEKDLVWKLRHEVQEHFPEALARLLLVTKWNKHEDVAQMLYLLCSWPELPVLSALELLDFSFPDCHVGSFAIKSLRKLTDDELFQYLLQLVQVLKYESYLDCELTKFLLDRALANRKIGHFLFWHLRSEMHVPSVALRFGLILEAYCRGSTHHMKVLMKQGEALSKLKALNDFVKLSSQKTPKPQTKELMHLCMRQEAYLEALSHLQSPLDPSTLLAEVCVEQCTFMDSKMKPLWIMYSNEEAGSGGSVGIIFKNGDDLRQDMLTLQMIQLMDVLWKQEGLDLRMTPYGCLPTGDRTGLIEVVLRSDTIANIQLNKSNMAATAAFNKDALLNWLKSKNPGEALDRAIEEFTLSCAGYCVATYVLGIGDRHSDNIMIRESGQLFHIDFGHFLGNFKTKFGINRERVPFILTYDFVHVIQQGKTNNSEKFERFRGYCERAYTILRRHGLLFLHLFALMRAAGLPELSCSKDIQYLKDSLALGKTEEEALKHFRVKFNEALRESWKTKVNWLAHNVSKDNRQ

[15] = target: T3, Phosphatidylinositol 4,5-bisphosphate 3-kinase catalytic subunit delta isoform (Homo sapiens); conditions: at 1 µM
[16] = target: Phosphatidylinositol 4-kinase beta (Homo sapiens) (UniProt Q9UBF8); conditions: at 0.1 µM
Chain of UniProt Q9UBF8 (Q9UBF8 whole entry, looked up): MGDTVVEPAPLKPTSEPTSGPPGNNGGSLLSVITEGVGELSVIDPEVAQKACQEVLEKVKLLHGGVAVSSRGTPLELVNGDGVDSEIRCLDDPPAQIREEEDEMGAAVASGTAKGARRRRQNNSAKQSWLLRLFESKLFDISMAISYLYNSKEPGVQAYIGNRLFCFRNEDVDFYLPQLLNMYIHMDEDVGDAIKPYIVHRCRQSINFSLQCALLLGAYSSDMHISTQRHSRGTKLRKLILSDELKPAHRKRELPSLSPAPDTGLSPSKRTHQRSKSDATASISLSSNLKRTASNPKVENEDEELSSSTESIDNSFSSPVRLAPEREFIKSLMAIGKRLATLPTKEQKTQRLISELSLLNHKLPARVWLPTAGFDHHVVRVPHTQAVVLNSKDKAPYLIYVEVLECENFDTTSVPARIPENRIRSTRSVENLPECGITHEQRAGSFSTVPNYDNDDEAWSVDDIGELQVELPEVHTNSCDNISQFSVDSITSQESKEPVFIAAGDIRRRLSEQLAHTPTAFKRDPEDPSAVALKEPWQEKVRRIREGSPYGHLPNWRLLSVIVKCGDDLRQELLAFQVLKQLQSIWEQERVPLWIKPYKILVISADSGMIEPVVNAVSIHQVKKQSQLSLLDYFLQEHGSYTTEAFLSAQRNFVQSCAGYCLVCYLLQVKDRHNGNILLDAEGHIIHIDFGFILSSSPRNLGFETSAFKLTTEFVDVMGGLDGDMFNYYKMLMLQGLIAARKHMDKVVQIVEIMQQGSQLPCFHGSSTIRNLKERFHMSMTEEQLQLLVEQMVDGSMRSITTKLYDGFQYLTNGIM

[17] = target: Phosphatidylinositol 4-kinase beta (Homo sapiens) (UniProt Q9UBF8); conditions: at 1 µM
[18] = target: Sphingosine kinase 1 (Homo sapiens) (UniProt Q9NYA1); conditions: at 0.1 µM;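 also: mean percent inhibition of SPHK1 activity, measured within the GSK PKIS screening panel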
Chain of UniProt Q9NYA1 (Q9NYA1 whole entry): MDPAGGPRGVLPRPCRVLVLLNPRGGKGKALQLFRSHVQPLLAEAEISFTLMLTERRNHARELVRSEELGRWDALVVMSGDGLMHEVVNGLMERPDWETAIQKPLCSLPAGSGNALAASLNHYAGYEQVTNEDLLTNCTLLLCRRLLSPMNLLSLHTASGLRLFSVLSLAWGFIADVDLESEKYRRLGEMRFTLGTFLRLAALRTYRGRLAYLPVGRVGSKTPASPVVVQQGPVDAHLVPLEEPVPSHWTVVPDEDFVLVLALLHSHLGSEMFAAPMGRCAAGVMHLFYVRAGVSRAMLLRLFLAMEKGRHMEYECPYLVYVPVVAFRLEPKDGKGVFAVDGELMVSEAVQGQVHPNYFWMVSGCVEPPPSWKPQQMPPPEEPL

[19] = target: Mitogen-activated protein kinase 14 (Homo sapiens) (UniProt Q16539); conditions: at 0.1 µM
Chain of UniProt Q16539 (Q16539 whole entry): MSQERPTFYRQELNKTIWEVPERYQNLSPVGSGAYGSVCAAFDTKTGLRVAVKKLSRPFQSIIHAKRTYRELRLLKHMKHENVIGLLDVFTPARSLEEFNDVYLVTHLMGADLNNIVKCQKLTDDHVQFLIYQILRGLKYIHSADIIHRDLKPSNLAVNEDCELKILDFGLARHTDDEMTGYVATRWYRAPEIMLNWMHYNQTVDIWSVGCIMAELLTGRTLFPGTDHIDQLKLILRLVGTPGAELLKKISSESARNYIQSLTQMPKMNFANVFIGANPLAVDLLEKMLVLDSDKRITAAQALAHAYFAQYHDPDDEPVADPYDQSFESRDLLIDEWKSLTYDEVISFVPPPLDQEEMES

[20] = target: Mitogen-activated protein kinase 14 (Homo sapiens) (UniProt Q16539); conditions: at 1 µM

Chain of UniProt P27361 (P27361 whole entry): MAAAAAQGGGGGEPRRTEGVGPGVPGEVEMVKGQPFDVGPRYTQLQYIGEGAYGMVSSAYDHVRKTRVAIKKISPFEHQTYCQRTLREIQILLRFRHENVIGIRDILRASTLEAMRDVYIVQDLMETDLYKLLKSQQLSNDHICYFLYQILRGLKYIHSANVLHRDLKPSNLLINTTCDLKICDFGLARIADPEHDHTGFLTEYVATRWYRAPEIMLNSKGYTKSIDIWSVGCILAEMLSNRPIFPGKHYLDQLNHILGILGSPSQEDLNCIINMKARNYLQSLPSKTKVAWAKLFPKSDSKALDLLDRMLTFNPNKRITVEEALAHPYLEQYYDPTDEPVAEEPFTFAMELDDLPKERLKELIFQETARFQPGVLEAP

| Compound | inhibition [1] [%] | inhibition [2] [%] | inhibition [3] [%] | inhibition [4] [%] | inhibition [5] [%] | inhibition [6] [%] | inhibition [7] [%] | inhibition [8] [%] | inhibition [9] [%] | inhibition [10] [%] | inhibition [11] [%] | inhibition [12] [%] | inhibition [13] [%] | inhibition [14] [%] | inhibition [15] [%] | inhibition [16] [%] | inhibition [17] [%] | inhibition [18] [%] | inhibition [19] [%] | inhibition [20] [%] |
| --- | --- | --- | --- | --- | --- | --- | --- | --- | --- | --- | --- | --- | --- | --- | --- | --- | --- | --- | --- | --- |
| Cc1cccc(Oc2nccc(-c3c(-c4ccc(F)cc4)ncn3C3CCNCC3)n2)c1C | 3.01 | 1.75 | -0.51 | 34.4 | 68.2 | 3.97 | 2.75 | 3.14 | 3.87 | -3.43 | -2.38 | 4.19 | 4.62 | 2.65 | 4.45 | -1.28 | 0.29 | 1.94 | – | – |
| Fc1ccc(-c2ncn(C3CCNCC3)c2-c2ccnc(Oc3ccc(Cl)cc3)n2)cc1 | 2.88 | 0.73 | 0.55 | 8.68 | 42.5 | 1.4 | 0.44 | 0.84 | 1.63 | 0.07 | -0.3 | -1.35 | -1.09 | -2.92 | 0.81 | -1.1 | -0.43 | -0.05 | – | – |
| COc1ccccc1C1=C(Nc2ccccc2)C(=O)NC1=O | 2.72 | 0.61 | 9.64 | 3.59 | 5.91 | 2.83 | 3.46 | 0.9 | 2.06 | -0.85 | 0.68 | 1.86 | 1.82 | 0.58 | -0.52 | -1.79 | 2.48 | 0 | 5.25 | 13.6 |
